# Assay results as given in PubChem BioAssay AID540267 (National Center for Advancing Translational Sciences (NCATS), 2011).
# About 530 (0.16%) of roughly 340,000 compounds were called active. Inconclusive results, whose numbers are uncertain, are shown with a selection of clear calls. Rule as the data show it: active = activity change below about -80%; inconclusive = between about -30% and that limit; inactive = weaker than that.
# Assay: Small Molecules that selectively kill Giardia lamblia: qHTS;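 also: parasites exposed to compound for two days anaerobically before the ATP read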
# Conditions: Giardia lamblia trophozoite viability; at 7.66 µM; active compounds read low
# In short: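 Giardia lamblia trophozoites (100 cells/well) were incubated with compounds for 48 h at 37 deg C under anaerobic conditions. Viability was read as ATP content by one-step luminescence after 15-30 min at room temperature.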
# % is scaled to controls: 0 for no effect and ±100 for the full control effect.
row,SMILES,activity change
1,COc1ccc(C(=O)N2CCN(C(=O)c3ccco3)CC2)cc1,inconclusive: -35.9% [inhibitor]
2,O=S(=O)(Cc1ccc(Cl)cc1)NCc1ccc2c(c1)OCO2,inconclusive: -32.3% [inhibitor]
3,CCOC(=O)C1CCCN(c2c(Nc3ccc(C)c(C)c3)c(=O)c2=O)C1 (centres undefined),inactive: -10.1%
4,OC(COc1c(Cl)cc(Cl)cc1Cl)CN1CCCCC1 (centres undefined),inactive: 1.04%
5,COc1ccc([C@H]2Oc3cc(O)cc(O)c3C(=O)C2[C@@H]2C(=O)c3c(O)cc(O)cc3O[C@@H]2c2ccc(OC)cc2)cc1 (some centres undefined),inactive: -8.47%
6,Cn1c(C(=O)Nc2ccc3c(c2)OCCO3)cc2sccc21,inconclusive: -30% [inhibitor]
7,O=C(COc1ccc(Cl)cc1Br)NC(=O)NC1CCCC1,inactive: -10.5%
8,CCOc1cccc(/C=C/c2cc(C(=O)O)c3ccccc3n2)c1OC,inconclusive: -61.9% [inhibitor]
9,O=c1c(Cc2ccccc2O)c(O)nc2n1CCCS2,inconclusive: -39.6% [inhibitor]
10,Cc1ccc(C)c(N2CCN(C(=O)c3csc(C)c3C)CC2)c1,inactive: 25.8%
11,CCOc1ccc(C(=O)Nc2cccc(C(=O)O)c2)cc1Cl,inconclusive: -38.7% [inhibitor]
12,Cc1cccn2cc(CSc3nnc(Nc4ccc(C(C)C)cc4)s3)nc12,inconclusive: -32.6% [inhibitor]
13,Cc1c[nH]c(=O)c([N+](=O)[O-])c1,inconclusive: -60.9% [inhibitor]
14,COc1ccc(NC(=O)Cn2nnc(-c3ccccc3NS(=O)(=O)c3ccccc3)n2)cc1,inactive: 12.8%
15,N#Cc1nc(-c2ccccc2Cl)oc1N1CCN(C(=O)c2ccco2)CC1,inconclusive: -31.2% [inhibitor]
16,O=C(Cn1c(-c2ccccn2)nc2ccccc21)N/N=C/c1cccnc1,inactive: 15.9%
17,CC(=O)Nc1ccc(/C(C)=N/NS(=O)(=O)c2ccccc2)cc1,inconclusive: -33.5% [inhibitor]
18,CCCC1(C(=O)OC)NC(c2cc(OC)c(OC)c(OC)c2)C2C(=O)N(CC)C(=O)C21 (centres undefined),inconclusive: -32.8% [inhibitor]
19,CCN1CCN(c2ccc(NC(=O)c3ccc([N+](=O)[O-])o3)cc2Cl)CC1,inconclusive: -78.5% [inhibitor]
20,Cc1cccc(C)c1N(CC(=O)N1CCCC1)S(C)(=O)=O,inactive: 19%
21,CCOC(=O)c1cc2c(C)n(-c3ccc(OCC)cc3)c(C)c2ccc1=O,inactive: -5.55%
22,CCOc1ccccc1CNC(=O)CNC(=O)c1cccs1,inconclusive: -32.1% [inhibitor]
23,CCc1ccc(/C=C2\SC(=S)N(CCCC(=O)Nc3nccs3)C2=O)cc1,inactive: -2.92%
24,O=C(CNC(=S)NC(=O)c1ccc(Cl)cc1)c1ccccc1,inconclusive: -32.6% [inhibitor]
25,COc1ccc(CC2C(=O)NC(C)C(=O)N(C)C3Cc4ccc(cc4)Oc4cc(ccc4O)CC(C(=O)NC(C)C(=O)NC(C)C(=O)N2C)N(C)C3=O)cc1 (centres undefined),inactive: -5.6%
26,Cn1c(-c2ccccc2O)cc2ccccc21,inactive: -6.85%
27,CCc1cccc(NC(=O)c2cc(S(=O)(=O)N(C)C)ccc2N2CCCC2)c1,inconclusive: -34.9% [inhibitor]

row,SMILES,activity change
1,Cc1ccc(NS(=O)(=O)c2cc(NC(=O)c3cc(=O)[nH]c(=O)[nH]3)ccc2Cl)c(C)c1,inconclusive: -36% [inhibitor]
2,CCCCNc1c(-c2cccc(-c3cc(C(C)=O)cs3)c2)nc2ccc(C)cn12,inconclusive: -31.5% [inhibitor]
3,CCn1c(-c2ccccc2)csc1=Nc1ccc(S(=O)(=O)O)cc1,inconclusive: -32.4% [inhibitor]
4,CCN(CC)C(=O)Oc1ccc2c(=O)c(-c3ccc(OC)cc3)coc2c1,inactive: -3.04%
5,c1ccc(-c2nc3ccccn3c2NCc2ccc3c(c2)OCO3)cc1,inactive: -16.5%
6,C/C(=N\Nc1ccc(C(=O)O)cc1)c1ccc(Br)cc1,inconclusive: -39.9% [inhibitor]
7,N#CC1=C(N)Oc2cc(N)ccc2C1c1ccc(Cl)cc1 (centres undefined),inconclusive: -41.2% [inhibitor]
8,COc1ccc(-c2sc3cc4c(cc3c2C#CCO)OCO4)cc1,inactive: -11.8%
9,Cc1ccc(C(=O)Nc2ccc(C(=O)O)cc2NC(=O)c2ccc(C)cc2)cc1,inconclusive: -36% [inhibitor]
10,CN(C(=O)CN1CCN(c2ccc([N+](=O)[O-])cn2)CC1)c1ccccc1,inconclusive: -47.6% [inhibitor]
11,COc1cccc(/C=C/C(=O)c2ccc(NS(=O)(=O)c3ccc(C)cc3)cc2)c1,inactive: 0.312%
12,O=[N+]([O-])c1cccc2nc3ccccc3c(NCCCn3ccnc3[N+](=O)[O-])c12,active: -95.2%
13,CCOc1cccc(CNCCCSc2ncccn2)c1,inconclusive: -36.6% [inhibitor]
14,COc1ccc(C(=O)N2CC3(CC(c4ccc(Cl)cc4)=NO3)C[C@H]2C(=O)NCC(N)=O)cc1 (some centres undefined),inconclusive: -40.5% [inhibitor]
15,Cc1cc(=O)oc2cc(OCC(=O)NCCc3c[nH]c4ccc(F)cc34)ccc12,inconclusive: -37.1% [inhibitor]
16,NC(=O)CC(NC(=O)c1cccc(Br)c1)c1ccc(N2CCN(c3ccccn3)CC2)c([N+](=O)[O-])c1 (centres undefined),inactive: 5.19%
17,Cc1ccccc1C(=O)Nc1ccnn1C1CCN(C(=O)C2CCOC2)CC1 (centres undefined),inactive: 11.1%
18,O=C(Nc1ccccc1N1CCCC1)C1CC(=O)N(Cc2ccccc2)C1 (centres undefined),inactive: -4.98%
19,O=C(CN1C(=O)c2ccccc2C1=O)NCCc1c[nH]c2ccc(Cl)cc12,inconclusive: -32.2% [inhibitor]
20,CCCC(=O)NC(=S)Nc1nc(-c2ccc(OC)cc2)cs1,inactive: -9.7%
21,O=c1c2cc(-c3ccccc3)sc2nc2n1N=C(c1cccs1)CS2,inconclusive: -33.4% [inhibitor]
22,COc1cccc([C@@H]2CC=C(C(=O)O)[C@H](c3ccc(Cl)cc3)N2S(=O)(=O)c2ccc(C)cc2)c1,inconclusive: -40% [inhibitor]
23,CC(=O)C1N=NCC1c1ccccc1 (centres undefined),inactive: 5.9%
24,Cn1ncc([N+](=O)[O-])c1C(=O)Nc1cccc2ccccc12,inactive: 13.5%
25,CCOc1ccc(C(C)=O)cc1COc1cccnc1[N+](=O)[O-],inconclusive: -41.3% [inhibitor]
26,COc1ccc(CCNC(=O)c2ccc(CS(=O)Cc3ccc(Cl)cc3)o2)cc1OC (centres undefined),inactive: 5.6%
27,Cc1ccc(S(=O)(=O)N2[C@@H](c3ccc(Cl)cc3)C(C(=O)O)=CC[C@H]2c2ccc3c(c2)OCO3)cc1,inconclusive: -32.9% [inhibitor]

row,SMILES,activity change
1,COc1ccc(N2CCN(C(=O)NCc3cccc(OC)c3)CC2)cc1,inactive: 20.5%
2,CCc1ccc(C(=O)Nc2nnn(CC)n2)cc1,inconclusive: -42.9% [inhibitor]
3,CN(C)S(=O)(=O)c1cccc(NC(=O)COC(=O)CCC(=O)c2ccc(F)cc2)c1,inactive: 21.1%
4,CCCCC(=O)Nc1ccc(C2C(=O)c3ccccc3C2=O)cc1,inconclusive: -34.4% [inhibitor]
5,CCOP(=O)(OCC)C(NC(=O)Nc1ccccc1)c1ccccc1 (centres undefined),inconclusive: -31.2% [inhibitor]
6,c1ccc(-c2csc3ncnc(N4CCc5ccccc5C4)c23)cc1,inactive: 2.79%
7,COc1ccccc1CNC(=O)C1CCN(S(=O)(=O)c2ccc3c(c2)C(C)(C)C(=O)N3C)CC1,inconclusive: -32.9% [inhibitor]
8,Cc1cc(NC(=O)CSc2nncn2N)no1,inactive: 6.38%
9,COc1cccc(-c2nnc(Nc3nc4c(F)cccc4s3)o2)c1,inconclusive: -44.8% [inhibitor]
10,COc1ccc(-c2cc(-c3cccs3)nc(OC)c2C#N)cc1OC,inactive: 21.2%
11,Cc1cc2[nH]c3c(c[n+](C)c4ccccc34)c2cc1C,active: -83.7%
12,OCC1(Cc2ccc(Cl)cc2)CCN(CCCc2ccccc2)CC1,inactive: 8.25%
13,CCOc1ccc(C(C)=O)cc1COC(=O)c1cccnc1SC,inactive: 4.06%
14,Cc1ccc(C(=O)Nc2cnc3ccccc3c2)cc1,inconclusive: -65% [inhibitor]
15,COc1ccc(OC)c(C(=O)c2c(C)oc3cc([N+](=O)[O-])c(O)c([N+](=O)[O-])c23)c1,inconclusive: -42.4% [inhibitor]
16,CCC(=O)NC(=S)Nc1ccc(NC(=O)c2ccc(OC)cc2)cc1,inactive: 12.4%
17,O=C(c1ccco1)N1CCN(c2ncnc3scc(-c4ccccc4)c23)CC1,inactive: -0.712%
18,COc1ccc(NC(=O)c2ccccn2)cc1,inconclusive: -41.8% [inhibitor]
19,C=CCN(c1ccccc1)S(=O)(=O)c1c(C)[nH]c(=O)[nH]c1=O,inactive: 12.8%
20,NC(=O)CCN1CCC(c2nc3ccccc3s2)CC1,inconclusive: -39.8% [inhibitor]
21,CC1CC(C)(C)NC(=S)N1CC(=O)NCc1ccc2c(c1)OCO2 (centres undefined),inconclusive: -33.8% [inhibitor]
22,COC(=O)c1ccc(CSc2ccc3nnc(-c4cccc(F)c4)n3n2)o1,inconclusive: -35.7% [inhibitor]
23,COc1cccc(C(CNC(=O)C2CCN(C(=O)Nc3ccccc3)CC2)N(C)C)c1 (centres undefined),inactive: -6.27%
24,C=CCNc1nc2ccccc2nc1NS(=O)(=O)c1ccc(Br)cc1,inactive: -1.29%
25,CN(C)CCNC(C(=O)Nc1cccc(C(F)(F)F)c1)c1ccccc1 (centres undefined),inconclusive: -40.9% [inhibitor]
